Laboratory results taken from the supplement of paper PMC12217912.
This is one part of the list. The full chains were built here from the parent and the listed change. Values near 0.05 are background.

B1: TEV protease; numbered along this chain (parent)
chain: MGESLFKGPRDYNPISSSICHLTNESDGHTTSLYGIGFGPFIITNKHLFRRNNGTLVVQSLHGVFKVKDTTTLQQHLVDGRDMIIIRMPKDFPPFPQKLKFREPQREERICLVTTNFQTKSMSSMVSDTSCTFPSGDGIFWKHWIQTKDGQCGSPLVSTRDGFIVGIHSASNFTNTNNYFTSVPKNFMELLTNQEAQQWVSGWRLNADSVLWGGHKVFMVKPEEPFQPVKEATQL

Variants of: B1
Test: raw area under fraction-flipped curve 0-4 h after induction (AUC4h, not background-subtracted), DNA-recorder readout of cleavage of the substrate (dimensionless); higher = more cleavage of the substrate by the protease variant
Settings: temperature: 34 °C; time window: 0-4 h after rhamnose induction
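Note: Bxb1 expression induced with 0.2% (w/v) L-rhamnose at OD600 near 0.5, cultures sampled hourly, flipped fraction per protease–substrate barcode pair counted by paired-end Illumina sequencing.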

Variant | area with substrate ENLYFQD | area with substrate ENLYFQK | area with substrate ENLYFQP | area with substrate ENLYFQS | area with substrate ENLYFQQ | area with substrate ENLYFQW | area with substrate ENLYFQG | area with substrate ENLYFQI | area with substrate ENLYFQM | area with substrate ENLYFQN
R87Q | 0.0912 | 0.067 | 0.064 | 0.131 | – | – | – | – | – | –
K90A | 0.0925 | – | – | 0.0993 | 0.0825 | 0.0641 | – | – | – | –
F92L | 0.0694 | 0.0984 | 0.0564 | 0.109 | – | – | 0.134 | 0.0478 | 0.131 | 0.0844
K100Q | 0.086 | 0.0694 | – | 0.102 | – | 0.0798 | 0.0953 | 0.0567 | 0.0797 | –
N116F | 0.074 | 0.0371 | 0.0518 | 0.0944 | – | – | – | 0.078 | – | –
S124G | 0.081 | – | 0.0557 | 0.106 | – | 0.0668 | 0.0755 | – | 0.0987 | –
M125W | 0.0752 | – | 0.0582 | 0.0929 | – | 0.0653 | – | 0.0532 | 0.0881 | 0.0779
T129D | 0.0585 | – | 0.0615 | 0.102 | – | – | – | 0.0592 | 0.0811 | 0.0439
K148L | 0.0752 | 0.0719 | 0.0579 | 0.102 | 0.0644 | – | – | 0.0406 | 0.0745 | 0.0868
F163M | 0.062 | – | – | 0.116 | – | – | – | – | – | –
S169K | 0.0684 | – | – | 0.0472 | – | – | – | – | – | 0.0503
N172P | 0.0639 | – | – | 0.0581 | – | – | 0.0683 | 0.0524 | – | –
F180S | 0.0572 | – | – | 0.066 | – | 0.0772 | 0.0645 | – | – | 0.0613
K185L | 0.0695 | – | 0.0541 | 0.108 | – | – | – | 0.0419 | 0.128 | 0.0686
K185V | 0.0707 | 0.0443 | 0.0463 | 0.102 | – | – | – | 0.0668 | 0.102 | –
L190N | 0.0746 | – | – | 0.0895 | – | 0.0509 | – | – | 0.0763 | 0.0707
V200D | 0.0523 | – | – | 0.0716 | – | – | – | – | – | –
R204P | 0.0987 | – | – | 0.0702 | – | 0.047 | – | 0.0703 | 0.0677 | –
G214E | 0.0523 | – | 0.0531 | 0.0875 | – | – | 0.137 | 0.0529 | – | 0.085
F218I | 0.0651 | 0.0695 | – | 0.0906 | – | 0.0717 | – | – | – | –

Same assay, conditions: temperature: 34 °C; time window: 0-4 h after rhamnose induction

Variant | area with substrate ENLYFQT | area with substrate ENLYFQL | area with substrate ENLYFQF | area with substrate ENLYFQR | area with substrate ENLYFQV | area with substrate ENLYFQY | area with substrate ENLYFQH
F92L | 0.0689 | – | – | – | – | – | –
K100Q | 0.0643 | 0.0914 | – | – | – | – | –
N116F | 0.0715 | 0.0561 | – | – | – | – | –
S124G | 0.0646 | 0.0566 | 0.0738 | 0.0594 | 0.0523 | – | –
M125W | – | 0.0555 | – | 0.0524 | – | – | –
T129D | 0.0661 | – | 0.0946 | – | 0.0644 | 0.0842 | –
K148L | 0.0662 | – | – | – | 0.0614 | – | 0.0725
F163M | 0.0531 | – | 0.104 | – | 0.0462 | – | –
S169K | – | 0.0276 | – | – | – | 0.0379 | –
N172P | 0.0074 | – | – | – | – | 0.0636 | 0.072
F180S | – | – | – | – | – | 0.0698 | –
K185L | 0.0539 | – | – | 0.06 | 0.0593 | – | 0.0861
K185V | 0.0459 | 0.0855 | – | 0.0642 | 0.0315 | – | 0.0808
L190N | 0.0435 | – | 0.0588 | 0.0571 | – | – | –
V200D | 0.0839 | 0.0505 | – | – | 0.063 | 0.058 | –
R204P | – | – | 0.0522 | 0.0541 | – | 0.0635 | 0.0589
G214E | 0.0634 | – | – | 0.0444 | – | 0.0561 | –
F218I | 0.0538 | 0.0569 | – | 0.0476 | – | 0.0592 | –
